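Five compound concentrations were applied to cells in 96-well plates for 48 hours; endpoints were derived by simple linear interpolation of the resulting dose-response curve. Abbreviation: GI50, concentration required for 50% inhibition of growth. TGI denotes the concentration required for complete inhibition of growth.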
System: NCI-H322M lung
Assay: NCI tumour cell line growth inhibition, 48 h

Row | Structure (SMILES) | TGI [µM] | GI50 [µM]
1 | Cc1ccc(NC(=O)C(Cc2c[nH]c3ccccc23)NC(=O)Oc2ccccc2)cc1C (stereo not given) | 75.2 | –
2 | O=C(CCCCCC(=O)N1CC(CCl)c2ccc([N+](=O)[O-])cc21)N1CC(CCl)c2ccc([N+](=O)[O-])cc21 (stereo not given) | > 100 | –
3 | COC(=O)C1OC2(CCCC3CC32)O[C@H]1C(=O)OC (stereo not given in full) | > 100 | –
4 | C[n+]1c(-c2ccc(/C=N/Nc3ccnc(N/N=C/c4ccc(-c5cn6ccsc6[n+]5C)cc4)n3)cc2)cn2ccsc21 | 93.2 | –
5 | Cc1cc(-c2ccccc2)nc(Nc2nc3ccccc3o2)n1 | > 100 | –
6 | O=[N+]([O-])c1ccccc1S(=O)(=O)c1ccccc1 | > 100 | –
7 | O=S(=O)(O)c1ccc(N=Nc2nc(C(F)(F)F)c(C(F)(F)F)[nH]2)cc1 | > 100 | –
8 | CCC/C=C1\CCC(CN(C)C)C1=O (stereo not given) | > 57 | –
9 | C=CCN1C(=O)/C(=C/c2ccco2)N=C1SC1OC(COC(C)=O)C(OC(C)=O)C(OC(C)=O)C1OC(C)=O (stereo not given) | > 100 | –
10 | O=C1C=C2SC3C[C@@]24CC1[N+]1=c2c4c(c(O)c4c2=C(C=N4)CC1)N3 | 8.17 | –
11 | O=C(/C=C/c1ccco1)c1ccc(NCc2nc3ccccc3[nH]2)cc1 | 21.5 | –
12 | COc1cc([C@@H]2c3cc4c(cc3[C@@H](Nc3ccccc3C(=O)c3ccccc3)[C@H]3COC(=O)[C@H]23)OCO4)cc(OC)c1OC | > 100 | –
13 | CC12CC3OC(=O)C1COC14OC5(C2C1=O)C(O)(CCC1C4CC2OC24CC=CC(=O)C14C)C(=O)OC35C (stereo not given) | > 100 | –
14 | COc1cc(-c2cc(-c3ccc(Nc4ccnc5cc(Cl)ccc45)cc3)nc(N3CCOCC3)n2)cc(OC)c1OC | 4.8 | 2.05
15 | O=[N+]([O-])c1ccc(Cl)c(C2CC(c3cccc4ccccc34)=Nc3ccccc3S2)c1 (stereo not given) | > 100 | –
16 | NC1=NC(c2ccc(Cl)cc2)N(c2ccc(S(N)(=O)=O)cc2)C(N)=N1 (stereo not given) | > 100 | –
17 | O=C1Nc2ccccc2Cn2c1cc1oc(-c3ccccc3)cc12 | > 100 | –
18 | O=c1oc2ccc([N+](=O)[O-])cc2c(Nc2ccc3c(c2)Sc2ccccc2O3)c1[N+](=O)[O-] | 51.5 | –
19 | Cc1c(-c2ccccc2)nn2cc(-c3ccccc3)nnc12 | 51.3 | –
20 | O=C(CCC(=O)Nc1ccc(Cl)c(Cl)c1)CC(=O)c1ccc(F)cc1 | > 100 | –
21 | CC1=CC(=O)C(C(C)C)=CC1=Nc1cc(Br)c(O)c(Br)c1 | 51.3 | 7.37
22 | O=C(CSc1ncn[nH]1)C[P+](c1ccccc1)(c1ccccc1)c1ccccc1 | > 100 | –
23 | COC(=O)[C@H]1NC(=O)CCSSC1(C)C | > 100 | –
24 | CCCCCc1nnc(NS(=O)(=O)c2ccc(NC(=O)OCC(C)C)cc2)s1 | > 100 | –

Row | Structure (SMILES) | TGI [µM] | GI50 [µM]
25 | COc1ccc2c(c1)C/C(=C\c1cccc3ccccc13)C2=O | > 100 | –
26 | C/C(=C\c1ccccc1)C(=O)NCc1ccc(C(=O)NCCc2ccccc2)cc1 | > 100 | –
27 | C=C1c2nc3ccccc3n2C=C(c2ccc(C)cc2)N1c1ccc(C)cc1 | > 100 | –
28 | NNc1nncc2[nH]cnc12 | > 100 | –
29 | O=[N+]([O-])c1ccc(-c2noc(-c3ccc(Cl)cc3)c2C2=NCCN2)cc1 | > 100 | –
30 | O=[N+]([O-])c1ccc(C2CC(c3ccccc3Cl)=Nc3ccccc3S2=O)cc1 (stereo not given) | 49.4 | –
31 | COc1ccc(NC(=O)CC(=O)n2nc(C)c(N=Nc3cccc(C)c3)c2C)cc1 | > 100 | –
32 | O=C1C2=C(c3ccccc31)C(c1ccccc1)N1C(=O)CSC1=N2 (stereo not given) | > 100 | –
33 | CS(=O)(=O)NNS(=O)(=O)c1ccccc1 | > 100 | –
34 | O=[N+]([O-])c1ccc(C(Nc2ccccc2)P(c2ccccc2)c2ccccc2)cc1 (stereo not given) | > 100 | –
35 | O=c1sc2c(s1)-c1sc(=O)sc1SS2 | > 100 | –
36 | CC(=O)OCc1cncn1S(=O)(=O)c1ccc(C)cc1 | > 100 | –
37 | Cc1nnc2c3nnc(C)n3c3ccccc3n12 | > 100 | –
38 | COC(=O)C1=C(c2ccc(OC)c(OC)c2)OC(c2cc(OC)c(OC)c(OC)c2)C1 (stereo not given) | > 100 | –
39 | COC(OC)C1OCC(n2cc(F)c(=O)[nH]c2=O)C1O (stereo not given) | > 100 | –
40 | Nc1cc(O)ccc1N=Nc1ccc(-c2nc3ccccc3[nH]2)cc1 | > 100 | 98.2
41 | CCO[C@@]1(COCc2ccccc2)OC(=O)C[C@@H]1N1C(=O)OC[C@@H]1c1ccccc1 | > 100 | –
42 | CN(C)c1ccc(/C=C/c2ccc(/C=C/c3ccc(N(C)C)cc3)cc2)cc1 | > 100 | –
43 | COc1ccc(/C=C/C(=O)c2cc(C(C)(C)C)c(O)c(C(C)(C)C)c2)cc1OC | > 100 | –
44 | COC(=O)CCc1ccc2c(c1)C(=O)CC2 | > 100 | –
45 | C=C1C(=O)O[C@H]2[C@H]3O[C@@H](C[C@@H]12)[C@@]1(C)CC[C@H](O1)[C@H](C)CCC[C@H]3C | 13.3 | –
46 | Cc1cc2cc3ccc(N(C)C)cc3nc2cc1N | 4.46 | 0.563
47 | O=c1[nH]c(=O)n(C2CC(O)C(CO)O2)cc1NN=NCCCc1ccccc1 (stereo not given) | > 100 | –
48 | CC(=O)c1c(CN(C)c2ccccc2)n([O-])c2ccccc2[n+]1=O | > 100 | 32.9

Row | Structure (SMILES) | TGI [µM] | GI50 [µM]
49 | COC(=O)/C=C\C(C#N)(C#N)N=Cc1ccccc1 | 31.4 | –
50 | COc1cc2cc(C(=O)N3CC(CCl)c4c3cc(NC(=O)OCc3ccc([N+](=O)[O-])cc3)c3ccccc43)[nH]c2c(OC)c1OC (stereo not given) | > 100 | –
51 | CCCC(O)c1cn(C(NC(=O)c2ccccc2)P(=O)(OCC)OCC)nn1 (stereo not given) | > 100 | –
52 | COP(=O)(OC)C(NC(=O)C(F)(F)F)(c1ccccc1)C(F)(F)F (stereo not given) | > 100 | –
53 | COc1ccc2c(c1)CC[C@@H]1[C@@H]2CC[C@]2(C)[C@@H](NC(=O)/C=C/c3ccc(O)c(O)c3)CC[C@@H]12 | 19.8 | 7.46
54 | N#Cc1c(Br)n(C2OC(CO)C(O)C2O)c2ncnc(N)c12 (stereo not given) | > 45.1 | 4.56
55 | COC1CC(OC2C(C)OC(OC3C(C)OC(OC4C(O)CC(O[C@H]5CC[C@@]6(C)C(=CC[C@]7(O)[C@@H]6C[C@@H](OC(C)=O)[C@@]6(C)[C@]7(O)CC[C@@]6(O)C(C)=O)C5)OC4C)CC3OC)CC2OC)OC(C)C1O (stereo not given in full) | > 12.5 | –
56 | COc1ccc2[nH]c3c(c2c1)CCN[C@]31CS[C@@H]2c3c(OC(C)=O)c(C)c4c(c3[C@H](COC1=O)N1[C@@H]2[C@H]2c3c(cc(C)c(OC)c3O)C[C@@H]([C@@H]1O)N2C)OCO4 | 0.0591 | –
57 | CCOC(=O)c1nc2ccccc2nc1Oc1ccc(C(=O)OC)cc1 | > 100 | –
58 | COc1ccc(/C=C2\CCS(=O)(=O)c3ccccc3C2=O)cc1OC | > 100 | –
59 | NC(=O)c1c([N+](=O)[O-])cc(C(F)(F)F)cc1[N+](=O)[O-] | > 100 | –
60 | O=C1NC(=O)C(=Nc2cccc3c(=O)[nH][nH]c(=O)c23)C(c2nc3ccccc3s2)C1=O (stereo not given) | > 100 | –
61 | S=c1[nH]nc(Cc2ccccc2)c(=S)[nH]1 | > 100 | –
62 | Cc1c(CCO)c(=O)n2c([nH]c3ccccc32)c1C#N | > 100 | –
63 | C#CC[N+](C)(CC#C)CC#C | > 100 | –
64 | CCCCCCNC(=O)Oc1ccc(/C(=C(/C)Cc2ccc(OC)cc2)c2ccc(OCCCN(C)C)cc2)cc1 | 27.9 | 14.2
65 | Cc1cccc(C(C)C)c1N1C(=O)C(=O)C(c2nc3ccccc3o2)C(=O)C1=O | > 100 | –
66 | Cc1ccc2c(=O)c(C(=O)Nn3c(C)csc3=S)c[nH]c2n1 | > 100 | –
67 | O=[N+]([O-])c1ccc(Oc2nc(Nc3ccc(O[C@H]4CO[C@H]5[C@@H]4OC[C@@H]5O)c(Cl)c3)ncc2F)c(Cl)c1 | 4.87 | 0.75
68 | CCOC(=O)c1sc2nc(SC)nc3c2c1NCN3c1ccc(F)c(F)c1 | > 76.7 | –
69 | CN(C)c1ccc(C=C2C(=O)N(c3ccccc3)N(c3ccccc3)C2=O)cc1 | > 100 | –
70 | CCCCC(C)C(OC(=O)CC(CC(=O)O)C(=O)O)C(CC(C)CC(O)CCCCC(O)CC(O)C(C)N)OC(=O)CC(CC(=O)O)C(=O)O (stereo not given) | > 100 | –
71 | CCN1C(=O)CCCc2c1ccc(Nc1ncc(Cl)c(NC3[C@@H](C(N)=O)[C@@H]4C=C[C@H]3C4)n1)c2OC (stereo not given in full) | 5.5 | 1.64
72 | CN(Cc1cccc(F)c1)c1ccc(CO)c(Cl)c1 | 76.3 | 12.4

Row | Structure (SMILES) | TGI [µM] | GI50 [µM]
73 | COc1cc2c(cc1OC)C(Sc1ccc(SC)cc1)c1c(nc(N)c(C#N)c1N)O2 (stereo not given) | 3.02 | 1.63
74 | O=C(O)c1cn(C2CC2)c2cc(N3CCN(C(=O)Nc4nc(-c5ccccc5)cs4)CC3)c(F)cc2c1=O | > 100 | 1.99
75 | NC(=O)c1ccccc1NC(=O)C(=O)Cc1nc2ccccc2[nH]c1=O | > 100 | –
76 | Cc1cn(C2C=CC(CO)O2)c(=O)[nH]c1=O (stereo not given) | > 1000 | –
77 | CC(=O)OC(Cc1ccc2ccccc2n1)(C(F)(F)F)C(F)(F)F | 12 | –
78 | CSc1c(C#N)c(N)nc2c(N=Nc3ccc(Br)cc3)c(N)nn12 | 19.9 | –
79 | CCOC(=O)c1c(-c2ccc(Cl)cc2)c(C#N)c(=S)n(C2OC(COC(C)=O)C(OC(C)=O)C(OC(C)=O)C2OC(C)=O)c1-c1ccccc1 (stereo not given) | > 100 | –
80 | Cn1nc(-c2ccc(Cl)cc2)nc2c(=O)n(C)c(=O)nc1-2 | 2.69 | 0.914
81 | Cc1ccc(-n2cc(-c3ccc(Cl)cc3)c3c(N/N=C4\SCC(=O)N4C)ncnc32)cc1 | > 100 | –
82 | CCOC(=O)c1c(Br)c(-c2ccc(OC)cc2)c(Br)n1C | > 100 | > 100
83 | COC(=O)CCC1CCc2c(OC)ccc(OC)c2C1=O (stereo not given) | > 100 | –
84 | Cc1ccc(NC(=O)C2C(=O)N(c3ccc(C)c(C)c3)C(=O)/C2=N\NC(N)=O)cc1C (stereo not given) | > 100 | –
85 | COC1=C(C)C(=O)c2c(c(CCCl)c3n2CCC3O)C1=O (stereo not given) | 4.7 | 0.276
86 | O=S(OC12CC3CC(CC(C3)C1)C2)c1cc(Cl)cc(Cl)c1OCc1ccccc1 (stereo not given) | > 100 | –
87 | CC(C)N1CCN(Cc2ccc3c(NNC(=O)c4ccccc4)nc4cc(F)ccc4n23)CC1 | 13.2 | 0.318
88 | CN(C)C(=Nc1nc(=[N+](C)C)ss1)N(C)C | > 100 | –
89 | FC(F)(F)c1ccc(-c2cnc(-n3cc(COCCN4CCCCC4)nn3)nc2NC2CCCCCC2)cc1 | 7.84 | 4.06
90 | Oc1ccc(-c2nc3ccc4[nH]ncc4c3c3c2CCCC3)c(F)c1 | 16.2 | 2.64
91 | C=CC(OC(C)=O)c1ccc(OC(=O)C(C)C)c(OC)c1 (stereo not given) | 12.2 | –
92 | CC1(C)C(CCO)CC1n1cc(I)c(=O)[nH]c1=O (stereo not given) | > 100 | –
93 | CCN(CC)c1ccc(N=Nc2ccc([N+](=O)[O-])cc2OC(=O)/C=C/c2ccccc2)c(OC(=O)/C=C/c2ccccc2)c1 | 70.6 | –
94 | CSCCCS/C1=C/CCCCCCCCCC1 | > 100 | –
95 | CCCC(C)n1c(C)nc2c1C(=O)c1ccccc1C2=O (stereo not given) | > 100 | –
96 | CCCCCCNC(=O)CCC(NC(=O)c1ccc(N(C)Cc2cnc3nc(N)nc(N)c3n2)cc1)C(=O)NCCCCCC (stereo not given) | > 100 | –
